Consider 19 compounds from PubChem BioAssay (NCATS).

The list shows a part of the results. Further columns of the screen follow, without active or inactive calls. Compounds called inactive in the main read-out are mostly missing here. The note in brackets gives the kind of curve behind each potency; many fits are weak.

A short description of this experiment: Cell-based coincidence reporter assay to measure PMP22 gene transcription in S16 Pmp22-F2sN cells - Confirmatory screen (AID 1508646). The note with it: S16 Schwann cells Pmp22-F2sN, dual luciferase, 24 h. The gist of the method:
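Coincidence reporter read as sequential FLuc then NLuc luminescence (Nano-Glo Dual-Luciferase, 10 min each). Engineered S16 Pmp22-F2sN Schwann cells, 500-1,000 per well in DMEM/10% FBS, were exposed to compounds for 24 h, 37C.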

Where [1] appears, read: measured here: FLuc reporter channel.
[2] abbreviates: measured here: NLuc reporter channel.
Tags describe the fitted curve by direction and shape.

With `O=C(NCCc1ccc(Cl)cc1)c1ccc(Cn2c(=O)[nH]c3ccccc3c2=O)cc1`, the AC50 reads like this: under setting [1], 21.7 µM [falling, partial curve]; under setting [2], 24.3 µM [falling, partial curve].

In the case of `COc1ccc(NC(=O)c2oc3ccccc3c2NC(=O)Cc2ccc(F)cc2)c(OC)c1`, the AC50 runs as follows: under setting [1], 10.9 µM [falling, full curve, poor fit]; under setting [2], 10.9 µM [falling, full curve].

Consider `Cc1ccc2nc3c(c(Nc4ccc(C)c(C)c4)c2c1)CCC3`, for which the half-maximal activity concentration (AC50) runs as follows: under setting [1], 21.7 µM [falling, partial curve, poor fit]; under setting [2], 17.2 µM [falling, partial curve, poor fit].

On to `CCN1CCOC(=O)C1CC(=O)Nc1cccc(OC)c1` (stereo not drawn), for which the AC50 under setting [1] is 43.2 µM [falling, single point] and the AC50 under setting [2] is 43.2 µM [falling, partial curve].

In the case of `COc1cc(NS(=O)(=O)c2ccc3[nH]c4c(c3c2)CCCC4)cc(OC)c1OC`, the AC50 is, setting by setting: under setting [1], 24.3 µM [falling, partial curve, poor fit]; under setting [2], 24.3 µM [falling, partial curve].

In the case of `COc1ccc(Nc2nc3c(S(=O)(=O)c4ccccc4)nnn3c3ccc(Cl)cc23)cc1`, the AC50 was 15.3 µM [falling, partial curve] under setting [1] and 12.2 µM [falling, partial curve] under setting [2].

With `O=C(CCn1cnnn1)Nc1cc(C(F)(F)F)cc(C(F)(F)F)c1`, the AC50 is, setting by setting: under setting [1], 19.3 µM [falling, partial curve, poor fit]; under setting [2], 10.9 µM [falling, partial curve, poor fit].

With `O=c1c2c3c(sc2n(Cc2ccccc2F)c(=O)n1-c1ccc(Cl)cc1)CCCC3`, the concentration at half-maximal activity (AC50) reads like this: under setting [1], 7.69 µM [falling, full curve, poor fit]; under setting [2], 6.11 µM [falling, full curve].

Take `Cc1ccc(C)c(NC(=O)Cn2c(=O)n(Cc3ccc4c(c3)OCO4)c(=O)c3ccc(C(=O)NC4CCCCC4)cc32)c1`: the half-maximal activity concentration (AC50) reads like this: under setting [1], 17.2 µM [falling, partial curve]; under setting [2], 19.3 µM [falling, partial curve].

For the compound `Cc1cccc(OCC(=O)Nc2ccc3nc(SCc4ccccc4)sc3c2)c1`, the AC50 is 30.6 µM [falling, single point] under setting [1] and 24.3 µM [falling, partial curve] under setting [2].

For `CC(C)c1ccc(OCC(=O)Nc2cc(-c3nc4ncccc4o3)ccc2Cl)cc1`, the AC50 is 21.7 µM [falling, partial curve, poor fit] under setting [1] and 24.3 µM [falling, partial curve, poor fit] under setting [2].

For the compound `COc1cccc(N2CCN(C(=O)c3ccc(CS(=O)c4cccc(Cl)c4)o3)CC2)c1` (stereo not drawn), the AC50 reads like this: under setting [1], 1.93 µM [falling, full curve, poor fit]; under setting [2], 6.85 µM [falling, full curve, poor fit].

Turning to `Cc1c(C(=O)Nc2ccccc2Cl)oc2ccc(S(=O)(=O)N3CCCCC3)cc12`, the concentration at half-maximal activity (AC50) is, setting by setting: under setting [1], 15.3 µM [falling, partial curve]; under setting [2], 24.3 µM [falling, partial curve].

As to `O=C(Nc1cccc(-c2nc3ccccc3o2)c1)C(F)(F)F`, the concentration at half-maximal activity (AC50) is 1.09 µM [rising, full curve] under setting [1] and 38.5 µM [rising, single point] under setting [2].

Consider `Cc1cc(C)c(NC(=O)Cn2c(=O)n(Cc3ccco3)c(=O)c3ccc(C(=O)NC4CCCC4)cc32)c(C)c1`, for which the concentration at half-maximal activity (AC50) is 12.2 µM [falling, full curve] under setting [1] and 12.2 µM [falling, full curve] under setting [2].

Take `Cc1cccc(N2CCN(C(=O)C3CCCN(S(=O)(=O)c4ccc5c(c4)oc(=O)n5C)C3)CC2)c1C` (stereo not drawn): the concentration at half-maximal activity (AC50) under setting [1] is 21.7 µM [falling, partial curve] and the half-maximal activity concentration (AC50) under setting [2] is 24.3 µM [falling, partial curve].

As to `O=C(NCc1ccc(Cl)cc1)C(=O)Nc1cccc(Br)c1`, the AC50 is, setting by setting: under setting [1], 30.6 µM [falling, single point]; under setting [2], 24.3 µM [falling, partial curve].

As for `O=S(=O)(c1ccc(Cl)cc1)c1nnn2c1nc(N1CCCCC1)c1sccc12`, the AC50 under setting [1] was 34.3 µM [falling, single point] and the concentration at half-maximal activity (AC50) under setting [2] was 43.2 µM [falling, single point].

Turning to `CC1=Nc2cc(C(=O)NC3CCCCC3)ccc2Sc2ccc(Cl)cc21`, the AC50 is, setting by setting: under setting [1], 7.69 µM [falling, full curve]; under setting [2], 9.68 µM [falling, full curve].
